In all, about 310,000 compounds went through this assay and about 14,000 (4.5%) showed an effect of 50% or more. Effects have a minus sign here. The list shows a part of the results.
Molecular target: human ether-à-go-go-related gene (hERG) potassium channel (human, UniProt Q12809)
Test: primary screen, population patch clamp on CHO cells stably expressing hERG
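Note: peak tail current of the secondary pulse compared with the same well before compound.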

Sequence of human ether-à-go-go-related gene (hERG) potassium channel (Q12809 whole entry, looked up): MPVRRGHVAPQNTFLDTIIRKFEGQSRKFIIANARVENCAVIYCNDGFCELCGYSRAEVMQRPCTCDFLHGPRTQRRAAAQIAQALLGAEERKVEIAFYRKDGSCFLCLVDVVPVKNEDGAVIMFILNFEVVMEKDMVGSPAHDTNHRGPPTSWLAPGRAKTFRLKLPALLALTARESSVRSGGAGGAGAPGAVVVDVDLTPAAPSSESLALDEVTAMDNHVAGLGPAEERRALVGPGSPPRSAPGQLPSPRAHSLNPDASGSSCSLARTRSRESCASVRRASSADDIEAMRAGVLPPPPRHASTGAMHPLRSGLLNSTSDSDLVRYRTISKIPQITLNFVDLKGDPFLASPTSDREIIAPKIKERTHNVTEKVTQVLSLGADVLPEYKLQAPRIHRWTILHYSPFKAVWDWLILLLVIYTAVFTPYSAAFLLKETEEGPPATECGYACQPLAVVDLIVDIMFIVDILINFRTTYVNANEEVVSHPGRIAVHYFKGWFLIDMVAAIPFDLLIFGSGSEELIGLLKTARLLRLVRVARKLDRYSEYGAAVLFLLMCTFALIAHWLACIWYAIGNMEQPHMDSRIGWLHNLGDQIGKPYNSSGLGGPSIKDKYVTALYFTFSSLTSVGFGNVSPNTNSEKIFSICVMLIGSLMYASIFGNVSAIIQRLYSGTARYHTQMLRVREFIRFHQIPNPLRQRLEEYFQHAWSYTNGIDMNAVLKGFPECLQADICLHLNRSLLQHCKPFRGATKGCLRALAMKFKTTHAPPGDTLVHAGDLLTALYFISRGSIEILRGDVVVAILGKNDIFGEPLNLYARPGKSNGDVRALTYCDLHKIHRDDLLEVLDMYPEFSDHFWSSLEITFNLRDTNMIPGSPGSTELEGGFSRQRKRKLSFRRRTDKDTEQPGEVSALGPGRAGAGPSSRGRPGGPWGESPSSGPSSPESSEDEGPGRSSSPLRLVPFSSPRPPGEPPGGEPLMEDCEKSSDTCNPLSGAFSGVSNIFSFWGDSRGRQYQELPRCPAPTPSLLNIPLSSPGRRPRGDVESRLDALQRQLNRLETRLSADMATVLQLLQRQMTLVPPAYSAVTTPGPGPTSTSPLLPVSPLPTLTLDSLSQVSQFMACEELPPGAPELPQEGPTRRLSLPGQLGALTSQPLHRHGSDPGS

Row | Compound | hERG current change (%, negative = inhibition) at 10uM [%]
1 | OCCCNc1cc(-c2ccnc(Nc3cccc(Cl)c3)n2)ccn1 | -30.3
2 | Cc1oc2c(c(C)cc3oc(=O)c(CC(=O)NCCC(=O)O)c(C)c32)c1C | 13.8
3 | CCN(CC)C(=O)C(=O)c1cn(CC(=O)NCC2CCCO2)c2ccccc12 (stereo not shown) | 9.4
4 | O=C(COC(=O)CSc1ccc(F)cc1)NCCCc1ccccc1 | 7.08
5 | Cc1ccc(NC(=O)c2c(C)nn(-c3ccccc3)c2Cl)cc1 | -10.8
6 | O=C(c1ccc2snnc2c1)N1CCCC1 | 6.69
7 | CCC(=NCCO)c1c(O)n(-c2ccccc2)c(=O)[nH]c1=O | 15.5
8 | COc1ccc(C2(C(=O)NCCc3ccccc3)CCCC2)cc1 | 1.53
9 | CCC(=O)Nc1ccc(N2CCN(Cc3ccccc3F)CC2)cc1 | -22.5
10 | CC(C)=C1C2CC2C2C(C(=O)O)C12 (stereo not shown) | 13.9
11 | O=C1COc2ccc(C(=O)COC(=O)c3ccc4ccccc4n3)cc2N1 | 2.53
12 | Cc1ccc(C)c(NC(=O)CN(C)C(=O)c2cc3c(s2)CCCCC3)c1 | 1.59
13 | O=C(Nc1nc(=O)n(C(=O)c2cccc(C(F)(F)F)c2)s1)c1ccccc1 | 0.0736
14 | COC(=O)CC1COc2ccccc2N1C(=O)c1ccc(Br)cc1 (stereo not shown) | -2.98
15 | COc1ccc(C(=O)Nc2ccncc2)cc1S(=O)(=O)N1CCOCC1 | 4.42
16 | OC(C#CCN1CCCC1)(c1ccccc1)c1ccccc1 | -28.8
17 | COc1ccc2oc(=Nc3ccc(C(=O)O)cc3)c(C(=O)NCc3ccco3)cc2c1 | -36.4
18 | O=C1S/C(=C\c2ccc(O)c([N+](=O)[O-])c2)C(=O)N1c1ccccc1Cl | 7.26
19 | Cc1ccc(S(=O)(=O)NC(=O)NCCCN2CCOCC2)cc1 | 20.1
20 | CC1(C)OC(=O)C(=CNc2ccc(F)cc2)C(=O)O1 | -12
21 | CCCCCCc1c(O)nc(SCC(=O)O)[nH]c1=O | -10.9
22 | CCCOc1cccc(C(=O)Nc2ccc3c(c2)OCCO3)c1 | 0.786

Row | Compound | hERG current change (%, negative = inhibition) at 10uM [%]
23 | COc1ccc(S(=O)(=O)N2CCc3ccccc32)cc1C(=O)OCc1nnc(-c2ccccc2)o1 | 0.72
24 | Cc1c(NC(=O)c2cnn3c2NC(c2ccccc2)CC3C(F)(F)F)c(=O)n(-c2ccccc2)n1C (stereo not shown) | -16
25 | CN(C(=O)c1ccc(NC(=O)Cc2ccc(NC(=O)C3CCN(C(=O)C4CC4)CC3)cc2)cc1)C1CC1 | -7.85
26 | O=C(Nc1ccc(Cl)cc1Cl)c1cc2ccccc2o1 | 6.28
27 | C/C(=C\c1ccccc1)C1Nc2cccc3cccc(c23)N1 | 11.9
28 | CCCn1c(=O)c(C(=O)NC(C)c2ccccc2)c(O)c2ccccc21 (stereo not shown) | 16.7
29 | O=[n+]1c2c(n([O-])c3cc(F)c(N4CCCC4)cc31)CCCC2 | 6.38
30 | CSc1nnc(-c2ccc(S(=O)(=O)N3CCOCC3)cc2)n1C | -25
31 | Clc1nc2c(ccc3ccccc32)[nH]1 | -10.8
32 | Cc1ccc(S(=O)(=O)N2CCCC2C(=O)Nc2ccc(O)cc2)cc1 (stereo not shown) | 2.28
33 | CC(C)(C)C(=O)COC(=O)CCc1nc2ccccc2[nH]c1=O | 6.51
34 | COc1cc(/C=C/C(=O)OCC(=O)Nc2c(C)n(C)n(-c3ccccc3)c2=O)ccc1OCC#N | 14.9
35 | COc1ccc(OCCC(=O)OCC(=O)NCCc2ccccc2)cc1 | 6.65
36 | CCC(C)NS(=O)(=O)c1ccc(OC)c(Cl)c1Cl (stereo not shown) | 1.98
37 | Cc1ccc(CNC(=O)C2CCN(S(=O)(=O)N3CCCC3)CC2)cc1 | 0.472
38 | COc1ccc(CNC(=O)CSc2nnc3c(n2)[nH]c2ccc(OC)cc23)cc1 | 12.8
39 | CCN(CC)CCn1c2c(c(SCC(=O)Nc3ccc4c(c3)OCO4)nc1=O)CCC2 | -39.2
40 | Cc1nc(CC(=O)Nc2nc(C(C)(C)C)cs2)cs1 | -14.3
41 | O=C(O)c1cccc(CN2C(=O)CSC2=O)c1 | 19.4
42 | N#Cc1ccccc1OCC(=O)OCC(=O)NC1CCCCCC1 | 18.6
43 | OCCCc1cn(Cc2ccccc2)c2ccccc12 | -3.07
44 | CCn1nc(C)c(/C=N\NC(=O)c2cccc(OC)c2)c1C | 9.25

Row | Compound | hERG current change (%, negative = inhibition) at 10uM [%]
45 | CCCCNC(=O)CSc1nnc(Cc2ccc(Cl)c(Cl)c2)c(=O)[nH]1 | 15.9
46 | COc1cc(CN(CC2CCCO2)C(=O)c2cccs2)cc(OC)c1OC (stereo not shown) | 10.9
47 | Cl.Cn1c(=O)c2c(nc(N3CCCCC3)n2CCCNC2=NCCCC2)n(C)c1=O | 9.43
48 | O=c1c2ccccc2nc(N/N=C/c2ccccc2)n1O | -3.87
49 | CC(C)CN(Cc1cc(=O)oc2cc3c(cc12)CCCC3)CC(C)C | 11.9
50 | Cc1ccc(C(C(=O)NCc2ccc(F)cc2)N(C(=O)c2csnn2)C2CC2)cc1 (stereo not shown) | -19.3
51 | CCS(=O)(=O)N1Cc2ccccc2CC1C(=O)Nc1nccs1 (stereo not shown) | 0.999
52 | CCOc1ccc(NC(=O)CN(C)C(=O)CN2C(=O)NC3(CCCC3)C2=O)cc1OCC | 6.88
53 | Cc1ccccc1N1CC(C(=O)Nc2nnc(SCCC3OCCO3)s2)CC1=O (stereo not shown) | 16.3
54 | CC(=O)c1ccc(NS(=O)(=O)c2cc3c(cc2C)N(C)CCO3)cc1 | 13.5
55 | CN(C)N=Nc1nc2c([nH]1)c(=O)n(C)c(=O)n2C | 11.3
56 | Cc1ccc(S(=O)(=O)NCC(=O)NCC(=O)OCC(=O)N2CC(=O)Nc3ccccc32)cc1C | -10
57 | O=C(COC(=O)CNC(=O)c1ccc(Cl)c([N+](=O)[O-])c1)NCC1CCCO1 (stereo not shown) | 1.74
58 | Cc1coc(C)c1C(=O)CC1(O)C(=O)N(Cc2ccccc2)c2ccccc21 (stereo not shown) | -6.46
59 | COc1ccccc1C(=O)NCc1ccc(-c2nc3ccccc3s2)cc1 | -11
60 | CC1CC2OC(=O)C3(C)CCCC(C)(C23)C1(O)CCc1ccoc1 (stereo not shown) | -35.4
61 | NS(=O)(=O)c1ccc(NC2=CC(c3ccc([N+](=O)[O-])cc3)N(c3ccc(S(N)(=O)=O)cc3)C2=O)cc1 (stereo not shown) | -6.47
62 | COc1ccc(S(=O)(=O)Nc2cc(C)on2)cc1 | 12.6
63 | CSc1ccc(CNC(=O)c2c(C)noc2C)s1 | 3.82
64 | Cc1cccc2cncc(OCc3nnc(SC(F)F)n3C)c12 | 4.25
65 | Cc1nn(C)c(C)c1N1C(=O)c2cccc3c(Br)ccc(c23)C1=O | -1.3
66 | CCN(CC(=O)NCc1cccs1)C(=O)c1ccc(-c2cccc(C(F)(F)F)c2)o1 | -82.3

Row | Compound | hERG current change (%, negative = inhibition) at 10uM [%]
67 | O=C(O)CCCCNS(=O)(=O)c1ccc(Cl)c(C(F)(F)F)c1 | 19.9
68 | Cc1ccc(OCC(=O)NNC(=O)c2ccc3c(=O)n4c(nc3c2)CCC4)cc1 | -17.1
69 | Brc1ccc(-c2nnc(-c3cccnc3)o2)cc1 | -9.81
70 | CN(C)[C@@H]1C(=O)C(C(N)=O)=C(O)[C@@]2(O)C(=O)C3=C(O)c4c(O)cccc4[C@@](C)(O)[C@H]3[C@H](O)[C@@H]12.[Ca] | -2.49
71 | CCCNS(=O)(=O)c1ccc2c(c1)CCCN2C(C)=O | -4.81
72 | COc1ccc(-c2nc(C#N)c(N3CCC(C(N)=O)CC3)o2)cc1OC | -10.3
73 | CCOC(=O)N1CCc2c(sc3c2C(=O)NC(c2ccccc2)N3)C1 (stereo not shown) | 1.68
74 | Cc1ccnc2nc(C(=O)N3CCN(S(=O)(=O)c4ccccc4)CC3)nn12 | 13.6
75 | CSc1nc(O)c(C(c2cccc([N+](=O)[O-])c2)c2c(O)nc(SC)[nH]c2=O)c(=O)[nH]1 | 29.2
76 | COc1ccc(N=Nc2c(C)n[nH]c2C)cc1 | 18.1
77 | C=CCSc1nc2c(sc3nc(C)cc(C)c32)c(=O)[nH]1 | 16.5
78 | CN1CC2=Cc3ccccc3OC23Oc2ccccc2C=C3C1 | -35.4
79 | O=C1CC(C(=O)Nc2ccccc2)N=C(N2CCCCC2)N1 (stereo not shown) | -2.01
80 | Cc1cccc(OCc2occc2C(=O)Nc2cccc(-n3cnnn3)c2)c1 | 9.72
81 | CC1CCN(C(=O)COC(=O)c2ccc3c(c2)OCO3)CC1 | 17.9
82 | O=C(c1cc(S(=O)(=O)N2CCOCC2)ccc1F)N(CCc1ccccc1)Cc1ccccc1 | -4.37
83 | CCC(C)(C)C(=O)Nc1cc([N+](=O)[O-])ccc1Cl | -3.82
84 | Cc1ccc(CN(C(=O)CNC(=O)c2cccs2)C(C(=O)NCC2CCCO2)c2ccccc2)cc1 (stereo not shown) | 11.2
85 | CCOc1ccccc1CNC(=O)Cn1ccc2cc(S(=O)(=O)N3CCCCCC3)ccc21 | 10.4
86 | CN(C(=O)Cn1nnc(-c2ccccc2)n1)C1CCS(=O)(=O)C1 (stereo not shown) | 4.5
87 | CCOC(=O)c1cc2c(ccn2C)n1CC(=O)N1CCN(c2cccc(C(F)(F)F)c2)CC1 | -1.37
88 | O=C(O)CCC(NC(=O)OCc1ccccc1)C(=O)O (stereo not shown) | 1.35

Reference: PMC4336329 (PLoS ONE, 2015)
